# Assay results taken from the supplement of paper PMC8728848.
# Some of the results follow.
# B1: GNA (Galanthus nivalis), P30617 (protein)
# chain: MAKASLLILAAIFLGVITPSCLSDNILYSGETLSTGEFLNYGSFVFIMQEDCNLVLYDVDKPIWATNTGGLSRSCFLSMQTDGNLVVYNPSNKPIWASNTGGQNGNYVCILQKDRNVVIYGTDRWATGTHTGLVGIPASPPSEKYPTAGKIKLVTAK
# Key:
# Assay in all cases: glycan array binding signal (z-score within array); higher = stronger binding
# Settings in all cases: glycan notation: IUPAC condensed, linker removed
# [1] = target: Neu5Ac(a2-6)Gal(b1-4)GlcNAc(b1-3)Gal(b1-4)GlcNAc(b1-3)GalNAc
# Summary of the method: (§1)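 Arrays were curated from the Consortium for Functional Glycomics database, 3228 in total, and kept only where the protein sequence was available. Binding is expressed as a within-array Z-score. This score was averaged across arrays of the same protein sequence at different concentrations or buffers and across linkers, and negative values can be read as non-binding.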
# [2] = target: Neu5Ac(a2-6)Gal(b1-4)GlcNAc(b1-3)Gal(b1-4)GlcNAc(b1-3)[Neu5Ac(a2-6)Gal(b1-4)GlcNAc(b1-3)Gal(b1-4)GlcNAc(b1-6)]GalNAc
# Summary of the method: as §1
# [3] = target: Neu5Ac(a2-6)Gal(b1-4)GlcNAc(b1-3)Gal(b1-4)GlcNAc(b1-6)[Gal(b1-3)]GalNAc
# Summary of the method: as §1
# [4] = target: Neu5Ac(a2-6)Gal(b1-4)GlcNAc(b1-3)Gal(b1-4)[Fuc(a1-3)]GlcNAc(b1-3)Gal(b1-4)[Fuc(a1-3)]GlcNAc
# Summary of the method: as §1
# [5] = target: Neu5Ac(a2-6)Gal(b1-4)GlcNAc(b1-3)GalNAc
# Summary of the method: as §1
# [6] = target: Neu5Ac(a2-6)Gal(b1-4)GlcNAc(b1-3)[Neu5Ac(a2-6)Gal(b1-4)GlcNAc(b1-6)]GalNAc
# Summary of the method: as §1
# [7] = target: Neu5Ac(a2-6)Gal(b1-4)GlcNAc(b1-6)GalNAc
# Summary of the method: as §1
# [8] = target: Neu5Ac(a2-6)Gal(b1-4)GlcNAc(b1-6)[Gal(b1-3)GlcNAc(b1-3)]Gal(b1-4)Glc
# Summary of the method: as §1
# [9] = target: Neu5Ac(a2-6)Gal(b1-4)GlcNAc(b1-6)[Gal(b1-3)]GalNAc
# Summary of the method: as §1
# [10] = target: Neu5Ac(a2-6)Gal(b1-4)GlcNAc6S
# Summary of the method: as §1
# Neu5Ac(a2-6)GalNAc = target: Neu5Ac(a2-6)GalNAc
# Summary of the method: as §1
# [11] = target: Neu5Ac(a2-6)GalNAc(b1-4)GlcNAc
# Summary of the method: as §1
# [12] = target: Neu5Ac(a2-6)GalNAc(b1-4)GlcNAc6S
# Summary of the method: as §1
# [13] = target: Neu5Ac(a2-6)GlcNAc(b1-4)GlcNAc
# Summary of the method: as §1
# [14] = target: Neu5Ac(a2-6)GlcNAc(b1-4)GlcNAc(b1-4)GlcNAc
# Summary of the method: as §1
# Neu5Ac(a2-8)Neu5Ac = target: Neu5Ac(a2-8)Neu5Ac
# Summary of the method: as §1
# [15] = target: Neu5Ac(a2-8)Neu5Ac(a2-3)Gal(b1-3)GalNAc(b1-4)[Neu5Ac(a2-3)]Gal(b1-4)Glc
# Summary of the method: as §1
# [16] = target: Neu5Ac(a2-8)Neu5Ac(a2-3)Gal(b1-3)GalNAc(b1-4)[Neu5Ac(a2-8)Neu5Ac(a2-3)]Gal(b1-4)Glc
# Summary of the method: as §1
# [17] = target: Neu5Ac(a2-8)Neu5Ac(a2-3)Gal(b1-4)Glc
# Summary of the method: as §1
# [18] = target: Neu5Ac(a2-8)Neu5Ac(a2-3)Gal(b1-4)GlcNAc
# Summary of the method: as §1
# [19] = target: Neu5Ac(a2-8)Neu5Ac(a2-3)[Gal(b1-3)GalNAc(b1-4)]Gal(b1-4)Glc
# Summary of the method: as §1
# [20] = target: Neu5Ac(a2-8)Neu5Ac(a2-3)[GalNAc(b1-4)]Gal(b1-4)Glc
# Summary of the method: as §1
# [21] = target: Neu5Ac(a2-8)Neu5Ac(a2-8)Neu5Ac
# Summary of the method: as §1
# [22] = target: Neu5Ac(a2-8)Neu5Ac(a2-8)Neu5Ac(a2-3)Gal(b1-4)Glc
# Summary of the method: as §1
# [23] = target: Neu5Ac(a2-8)Neu5Ac(a2-8)Neu5Ac(a2-3)[Gal(b1-3)GalNAc(b1-4)]Gal(b1-4)Glc
# Summary of the method: as §1
# [24] = target: Neu5Ac(a2-8)Neu5Ac(a2-8)Neu5Ac(a2-3)[GalNAc(b1-4)]Gal(b1-4)Glc
# Summary of the method: as §1
# [25] = target: Neu5Ac(a2-8)Neu5Ac(a2-8)Neu5Ac(a2-8)Neu5Ac(a2-3)[GalNAc(b1-4)]Gal(b1-4)Glc
# Summary of the method: as §1
# [26] = target: Neu5Ac(a2-8)Neu5Gc(a2-3)Gal(b1-4)GlcNAc
# Summary of the method: as §1
# Neu5Ac(b1-6)GalNAc = target: Neu5Ac(b1-6)GalNAc
# Summary of the method: as §1
# [27] = target: Neu5Ac(b2-6)Gal(b1-4)GlcNAc
# Summary of the method: as §1
# Neu5Ac(b2-6)GalNAc = target: Neu5Ac(b2-6)GalNAc
# Summary of the method: as §1
# [28] = target: Neu5Ac9Ac(a2-3)Gal(b1-3)GlcNAc
# Summary of the method: as §1
# [29] = target: Neu5Ac9Ac(a2-3)Gal(b1-4)GlcNAc
# Summary of the method: as §1
# [30] = target: Neu5Ac9Ac(a2-6)Gal(b1-4)GlcNAc
# Summary of the method: as §1
# [31] = target: Neu5Gc(a2-3)Gal(b1-3)GlcNAc
# Summary of the method: as §1
# [32] = target: Neu5Gc(a2-3)Gal(b1-3)[Fuc(a1-4)]GlcNAc
# Summary of the method: as §1
# Neu5Gc(a2-3)Gal(b1-4)Glc = target: Neu5Gc(a2-3)Gal(b1-4)Glc
# Summary of the method: as §1
# [33] = target: Neu5Gc(a2-3)Gal(b1-4)GlcNAc
# Summary of the method: as §1
# [34] = target: Neu5Gc(a2-3)Gal(b1-4)GlcNAc(b1-3)Gal(b1-4)GlcNAc(b1-2)Man(a1-3)[Neu5Gc(a2-3)Gal(b1-4)GlcNAc(b1-3)Gal(b1-4)GlcNAc(b1-2)Man(a1-6)]Man(b1-4)GlcNAc(b1-4)GlcNAc
# Summary of the method: as §1
# [35] = target: Neu5Gc(a2-3)Gal(b1-4)[Fuc(a1-3)]GlcNAc
# Summary of the method: as §1
# [36] = target: Neu5Gc(a2-6)Gal(b1-4)GlcNAc
# Summary of the method: as §1
# Neu5Gc(a2-6)GalNAc = target: Neu5Gc(a2-6)GalNAc
# Summary of the method: as §1
# [37] = target: Neu5Gc(a2-8)Neu5Ac(a2-3)Gal(b1-4)GlcNAc
# Summary of the method: as §1
# [38] = target: Neu5Gc(a2-8)Neu5Gc(a2-3)Gal(b1-4)GlcNAc
# Summary of the method: as §1
# [39] = target: Neu5Gc(a2-8)Neu5Gc(a2-3)Gal(b1-4)GlcNAc(b1-3)Gal(b1-4)GlcNAc
# Summary of the method: as §1
# [40] = target: Neu5Gc(a2-8)Neu5Gc(a2-6)Gal(b1-4)GlcNAc
# Summary of the method: as §1
# [41] = target: Neu5Gc(b2-6)Gal(b1-4)GlcNAc
# Summary of the method: as §1
binder,measurement,setting,value
B1,glycan array binding signal (z-score),[1],-0.151
same,glycan array binding signal (z-score),[2],0.016
same,glycan array binding signal (z-score),[3],-0.122
same,glycan array binding signal (z-score),[4],-0.133
same,glycan array binding signal (z-score),[5],-0.14
same,glycan array binding signal (z-score),[6],-0.161
same,glycan array binding signal (z-score),[7],-0.155
same,glycan array binding signal (z-score),[8],-0.179
same,glycan array binding signal (z-score),[9],-0.154
same,glycan array binding signal (z-score),[10],-0.139
same,glycan array binding signal (z-score),Neu5Ac(a2-6)GalNAc,-0.233
same,glycan array binding signal (z-score),[11],-0.177
same,glycan array binding signal (z-score),[12],-0.173
same,glycan array binding signal (z-score),[13],-0.212
same,glycan array binding signal (z-score),[14],-0.197
same,glycan array binding signal (z-score),Neu5Ac(a2-8)Neu5Ac,-0.204
same,glycan array binding signal (z-score),[15],-0.169
same,glycan array binding signal (z-score),[16],-0.181
same,glycan array binding signal (z-score),[17],-0.147
same,glycan array binding signal (z-score),[18],-0.178
same,glycan array binding signal (z-score),[19],-0.155
same,glycan array binding signal (z-score),[20],-0.096
same,glycan array binding signal (z-score),[21],-0.155
same,glycan array binding signal (z-score),[22],-0.146
same,glycan array binding signal (z-score),[23],-0.117
same,glycan array binding signal (z-score),[24],-0.111
same,glycan array binding signal (z-score),[25],-0.103
same,glycan array binding signal (z-score),[26],-0.172
same,glycan array binding signal (z-score),Neu5Ac(b1-6)GalNAc,-0.21
same,glycan array binding signal (z-score),[27],-0.198
same,glycan array binding signal (z-score),Neu5Ac(b2-6)GalNAc,-0.226
same,glycan array binding signal (z-score),[28],-0.096
same,glycan array binding signal (z-score),[29],-0.167
same,glycan array binding signal (z-score),[30],-0.225
same,glycan array binding signal (z-score),[31],-0.158
same,glycan array binding signal (z-score),[32],-0.154
same,glycan array binding signal (z-score),Neu5Gc(a2-3)Gal(b1-4)Glc,-0.093
same,glycan array binding signal (z-score),[33],-0.149
same,glycan array binding signal (z-score),[34],-0.146
same,glycan array binding signal (z-score),[35],-0.074
same,glycan array binding signal (z-score),[36],-0.116
same,glycan array binding signal (z-score),Neu5Gc(a2-6)GalNAc,-0.17
same,glycan array binding signal (z-score),[37],-0.178
same,glycan array binding signal (z-score),[38],-0.173
same,glycan array binding signal (z-score),[39],-0.181
same,glycan array binding signal (z-score),[40],-0.159
same,glycan array binding signal (z-score),[41],-0.2
